Source: the supplement of paper PMC12217912
Some of the results follow. The full chains were built here from the parent and the listed change. Inactive controls read about 0.05.

B1: TEV protease; numbered along this chain (parent)
chain: MGESLFKGPRDYNPISSSICHLTNESDGHTTSLYGIGFGPFIITNKHLFRRNNGTLVVQSLHGVFKVKDTTTLQQHLVDGRDMIIIRMPKDFPPFPQKLKFREPQREERICLVTTNFQTKSMSSMVSDTSCTFPSGDGIFWKHWIQTKDGQCGSPLVSTRDGFIVGIHSASNFTNTNNYFTSVPKNFMELLTNQEAQQWVSGWRLNADSVLWGGHKVFMVKPEEPFQPVKEATQL

Variants of: B1
Experiment: raw area under fraction-flipped curve 0-4 h after induction (AUC4h, not background-subtracted), DNA-recorder readout of cleavage of the substrate (dimensionless); higher = more cleavage of the substrate by the protease variant
Conditions: temperature: 34 °C; time window: 0-4 h after rhamnose induction
Procedure: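 In vivo DNA recorder in E. coli TOP10(DE3) ΔrhaA at 34 °C. Each TEVp single-site mutant (parent TEVp 0) is paired with a single-site variant of the 7-mer TEVs (canonical ENLYFQ|S). The substrate sits between flexible linkers in a Bxb1-sfGFP-TEVs-SsrA fusion, so cleavage stabilises Bxb1 and speeds flipping of a recombination array, read by NGS. The value is the raw area under the fraction-flipped curve over 0-4 h after rhamnose induction (AUC4h), with ≥20 reads per time point. It is not background-subtracted; inactive controls average about 0.047.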
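Further: Bxb1 expression induced with 0.2% (w/v) L-rhamnose at OD600 near 0.5, cultures sampled hourly, flipped fraction per protease–substrate barcode pair counted by paired-end Illumina sequencing.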

| Variant | area with substrate ENLYFAS | area with substrate ENLYFCS | area with substrate ENLYFDS | area with substrate ENLYFES | area with substrate ENLYFFS | area with substrate ENLYFGS | area with substrate ENLYFHS | area with substrate ENLYFIS | area with substrate ENLYFKS | area with substrate ENLYFLS | area with substrate ENLYFMS | area with substrate ENLYFNS | area with substrate ENLYFPS | area with substrate ENLYFRS | area with substrate ENLYFSS | area with substrate ENLYFTS | area with substrate ENLYFWS | area with substrate ENLYFYS | area with substrate ENLYFVS |
| --- | --- | --- | --- | --- | --- | --- | --- | --- | --- | --- | --- | --- | --- | --- | --- | --- | --- | --- | --- |
| S18V | 0.0515 | 0.0654 | 0.0539 | 0.0726 | 0.0685 | 0.0637 | 0.0559 | 0.0547 | 0.0655 | 0.0716 | 0.0644 | 0.058 | 0.0434 | 0.0481 | 0.0508 | 0.0459 | 0.0707 | 0.0607 | – |
| P134L | 0.0727 | 0.0611 | – | 0.0477 | 0.0801 | 0.0552 | – | 0.0512 | – | 0.0453 | 0.0638 | – | 0.0589 | 0.056 | – | 0.0767 | 0.05 | 0.0539 | – |
| L33F | 0.0715 | 0.067 | 0.0621 | 0.0653 | 0.0534 | – | 0.0612 | 0.0548 | 0.0715 | 0.0531 | 0.074 | 0.069 | 0.0587 | 0.09 | – | 0.0555 | 0.0487 | – | 0.0616 |
| G214M | 0.0679 | 0.0534 | – | – | – | – | – | 0.0528 | 0.0592 | – | 0.0692 | – | 0.0883 | 0.0661 | – | 0.0571 | – | 0.0637 | 0.0656 |
| I139Q | 0.0304 | 0.0471 | 0.0781 | – | 0.0683 | – | – | 0.0621 | 0.0741 | 0.0693 | – | – | 0.065 | – | 0.0393 | 0.064 | 0.055 | 0.0666 | 0.0624 |
| A196N | 0.0691 | 0.0581 | 0.053 | 0.0606 | 0.0849 | 0.0545 | 0.0479 | 0.0688 | 0.0787 | – | 0.0762 | 0.058 | 0.062 | 0.0612 | – | 0.0535 | 0.0653 | 0.0492 | – |
| F101Q | 0.0627 | 0.0564 | 0.0553 | 0.0506 | 0.0591 | – | 0.0573 | 0.0561 | 0.0421 | 0.0491 | 0.0541 | 0.0534 | 0.0582 | 0.0616 | 0.039 | 0.0526 | 0.0489 | 0.0478 | – |
| E223F | 0.0627 | 0.0552 | 0.0582 | 0.0721 | 0.0756 | 0.0701 | 0.0357 | 0.054 | 0.0621 | 0.0643 | – | – | 0.0754 | – | 0.0707 | – | – | – | – |
| C111K | 0.0591 | 0.0606 | – | 0.0673 | 0.0683 | – | 0.068 | 0.0629 | 0.0499 | 0.0561 | 0.0826 | – | 0.0624 | – | 0.0575 | – | – | 0.0836 | 0.0478 |
| G150F | 0.0524 | 0.0588 | 0.0562 | – | – | – | 0.055 | 0.0586 | 0.0646 | – | 0.0719 | 0.0518 | – | – | – | 0.0471 | 0.0679 | 0.0505 | 0.0652 |
| K46R | 0.0589 | – | – | 0.0703 | 0.0707 | – | 0.0609 | 0.0478 | – | 0.0523 | 0.0691 | 0.0587 | 0.0662 | 0.0581 | – | 0.0562 | 0.0571 | – | – |
| I167F | 0.0562 | 0.0571 | 0.0479 | 0.0523 | 0.0691 | 0.0678 | 0.0652 | 0.0596 | – | 0.0558 | 0.0627 | 0.0437 | 0.0513 | 0.0609 | 0.0755 | 0.0673 | 0.0516 | 0.0535 | 0.0578 |
| D11I | 0.0536 | – | – | 0.0457 | – | – | 0.0618 | 0.0554 | – | 0.0656 | – | 0.0795 | – | 0.063 | – | 0.0862 | 0.0634 | 0.0477 | – |
| H29Q | 0.0507 | 0.0564 | 0.0618 | 0.0551 | 0.0698 | 0.059 | 0.0742 | 0.0582 | 0.0709 | – | 0.0354 | 0.0507 | 0.0756 | – | 0.0404 | 0.0604 | – | – | – |
| K46F | 0.0627 | 0.0522 | – | 0.0533 | 0.0655 | – | – | 0.0532 | – | 0.0509 | 0.0336 | – | 0.0545 | 0.0773 | 0.0548 | 0.0613 | 0.062 | 0.0524 | 0.0593 |
| G28M | 0.0575 | 0.0597 | – | 0.0643 | 0.0693 | 0.0476 | 0.0646 | 0.0516 | – | 0.0526 | 0.0534 | 0.04 | 0.0579 | 0.0631 | 0.0641 | 0.0549 | 0.0475 | 0.0584 | 0.0581 |
| G214K | 0.057 | – | 0.0605 | 0.0616 | 0.0616 | 0.0493 | – | 0.0574 | 0.0601 | – | – | 0.0638 | 0.0426 | 0.0423 | 0.0478 | 0.0535 | 0.0553 | – | 0.0468 |
| E103K | 0.0687 | 0.0577 | – | 0.0535 | 0.0636 | 0.06 | 0.0554 | 0.0483 | 0.0652 | – | 0.0723 | – | – | – | 0.0592 | 0.0685 | – | – | – |
| M219R | 0.0615 | – | 0.048 | 0.0481 | 0.0674 | – | 0.0467 | 0.0584 | 0.067 | 0.054 | 0.0626 | – | 0.0535 | 0.0517 | 0.0597 | 0.0567 | 0.07 | 0.0619 | 0.0571 |
| S121E | 0.0498 | – | 0.0354 | – | 0.0799 | – | – | 0.0427 | – | – | 0.0634 | 0.0565 | 0.0536 | – | – | – | – | – | – |
| K46E | 0.0583 | 0.0566 | – | – | 0.0721 | – | – | 0.0601 | – | 0.0505 | 0.0526 | 0.0529 | 0.0599 | – | 0.0503 | 0.0574 | – | 0.0513 | 0.0678 |
| H215G | 0.0688 | – | 0.0351 | 0.0676 | 0.0824 | 0.0986 | 0.0612 | 0.0551 | 0.0494 | – | 0.0535 | 0.0734 | 0.0696 | 0.0568 | 0.0647 | 0.0798 | – | – | – |
| E108N | 0.0607 | 0.0541 | 0.058 | 0.0492 | 0.0559 | – | 0.04 | 0.0537 | 0.0505 | 0.0554 | 0.0546 | – | 0.0482 | – | 0.036 | 0.0545 | 0.0602 | – | 0.0479 |
| Q118F | 0.0623 | 0.0686 | – | 0.0675 | 0.0741 | – | – | 0.0572 | 0.0546 | 0.0545 | 0.0572 | 0.0539 | – | 0.0596 | 0.0613 | 0.0544 | 0.0477 | 0.0665 | – |
| T132F | 0.0453 | 0.0388 | – | 0.0565 | – | – | 0.0658 | 0.0523 | 0.0568 | – | 0.0546 | 0.0532 | 0.0538 | 0.07 | 0.0522 | 0.0285 | 0.0473 | 0.0728 | – |
| I42D | 0.0364 | 0.0449 | – | 0.0476 | 0.0403 | – | 0.0547 | 0.0467 | – | – | – | – | – | – | – | 0.0487 | 0.0514 | – | 0.0504 |
